The values below come from PubChem BioAssay AID1240 (Sanford-Burnham Center for Chemical Genomics, 2008).

The whole screen tested about 50,000 compounds, of which about 800 (1.6%) showed an effect of 50% or more. Some of the results follow.

For the experiment, the target named is Bcl-2-like protein 10 (Homo sapiens) (UniProt Q9HD36). The experiment in a line: TR3 peptide-Bcl-B binding displacers, biochemical primary FP assay, phenotype converters (AID 1240).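 Note: 0% = Bcl-B with tracer peptide and DMSO and 100% = tracer peptide lacking Bcl-B.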 The note with it: GST-Bcl-B / FITC-TR3 peptide fluorescence polarization; stronger effect = higher value; compound at 3.75 mg/L.
UniProt Q9HD36, sequence (Q9HD36 whole entry, looked up): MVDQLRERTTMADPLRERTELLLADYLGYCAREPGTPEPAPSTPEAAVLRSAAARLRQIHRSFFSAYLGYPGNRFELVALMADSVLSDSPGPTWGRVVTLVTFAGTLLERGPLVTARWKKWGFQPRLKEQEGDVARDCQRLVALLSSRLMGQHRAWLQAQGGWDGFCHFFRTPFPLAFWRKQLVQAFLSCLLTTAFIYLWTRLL
Take `COc1c(Cl)cc(C(=O)Nc2ccc(-c3nc4cc(C)ccc4o3)cc2)cc1Cl`: the displacement is 13.8%.

As for `CCOc1cc(Br)c(/C=C2\C(=O)NC(=O)N(c3ccc(Cl)cc3)C2=O)cc1OC`, the displacement is 9.6%.

`OC(CN1CCCCC1)CN1CCCCC1`: the displacement is -14.2%.

For `CCCCOc1ccc2c(=O)c(Oc3ccccc3Br)coc2c1`, the displacement turned out to be 14.4%.

For `COc1cc(/C=C2/SC(=S)NC2=O)ccc1OCc1ccc(I)cc1`, the displacement is -8.4%.

`CCCCNc1ncnc2c1cnn2-c1ccccc1`: the displacement was 11.2%.

For the compound `Cc1ccc(-c2csc(NC(=O)c3ccc(S(=O)(=O)N4CCCCCC4)cc3)n2)cc1`, the displacement is -19%.

`COc1ccc(CN2CCN(C3CCCC(C)C3)CC2)c(OC)c1` (configuration not stated): the displacement came out at 2.8%.

Turning to `CCOCCOC(=O)c1cccc(NC(=O)c2ccc(-c3ccccc3)cc2)c1`, the displacement was -1.1%.

As to `CC1(c2ccccc2)CC(C)(C)N(C(=O)c2cccc(F)c2)c2ccccc21` (configuration not stated), the displacement is -3.6%.

With `CCN(CC)CCCCCOc1ccccc1C`, the displacement was -4.1%.

Take `CCN(CC)CCCNC(=O)Cn1cnc2c1c(=O)n(C)c(=O)n2C`: the displacement is -12%.

As to `O=C(Nc1ccc2c(c1)OCCO2)C(F)(F)F`, the displacement worked out at 5.6%.

For `CC(=O)c1ccc(NC(=O)Cc2ccc(F)cc2)cc1`, the displacement is -0.2%.

`CCN1C(=O)CSC1=Nc1ccc(Cl)c(Cl)c1`: the displacement is -4.7%.

For the compound `O=C1/C(=C/c2ccc(I)o2)SC(=S)N1c1cccc(C(F)(F)F)c1`, the displacement worked out at 55.7%.

Turning to `O=C(/C=C\c1ccc2c(c1)OCO2)c1ccc(Cl)cc1`, the displacement is -1.8%.

On to `CC(=O)Nc1sc2c(c1C#N)CCCC2`, for which the displacement turned out to be 10.9%.

For `O=C(O)c1cc(-c2ccc(/C=N/Nc3ccc(Cl)c(Cl)c3)o2)ccc1Cl`, the displacement is 12.1%.

`CCCCN(C)Cc1c(C)[nH]c2c(Cl)cccc2c1=O`: the displacement was -9.6%.

Take `Cc1ccccc1OCCOc1ccc(/C=C2/C(=N)N3N=C(C(C)C)SC3=NC2=O)cc1`: the displacement stood at 9.2%.

Take `CC1CN(C)C(C)C/C1=N/OC(=O)COc1ccc(Cl)cc1` (configuration not stated): the displacement is -2.6%.

For the compound `O=C(/C=C/c1ccccc1)Nc1ccc([N+](=O)[O-])cc1`, the displacement was 15.6%.

Turning to `Cc1ccc(C(O)(C(=O)NCc2ccc(N(C)C)cc2)c2ccc(C)cc2)cc1`, the displacement is 13.5%.

On to `CCc1ccc(NC(=O)C(=O)NC2CC(C)(C)NC(C)(C)C2)cc1`, for which the displacement is 10.4%.

As to `O=C(COc1ccc(Cl)cc1)N1CCN(c2cccc(Cl)c2)CC1`, the displacement was -9.9%.

For the compound `CCOc1ccccc1N1CCN(C(=O)c2cccc(Cl)c2)CC1`, the displacement is -11.7%.

`CCCN=C(C)c1c(C)[nH]n(-c2nc3ccccc3s2)c1=O`: the displacement was 68.8%.

In the case of `COc1ccc(N(CC(=O)N2CCCC2)S(C)(=O)=O)c(OC)c1`, the displacement came to 2.8%.

As to `O=C(O)c1ccc(OCc2ccoc2C(=O)O)cc1`, the displacement was found to be 3.2%.

Turning to `O=C(Nc1ccc(-c2nnc(-c3ccccc3)o2)cc1)C(c1ccccc1)c1ccccc1`, the displacement is 16.7%.

For `Cc1sc2nc(NC(=O)c3ccccc3)sc(=O)c2c1C`, the displacement was -5.9%.

In the case of `CC(Oc1ccccc1)C(=O)NCCN1CCOCC1` (configuration not stated), the displacement turned out to be 2.2%.

For the compound `COc1cc(NC(=O)c2ccccc2Br)ccc1NC(=O)c1cc2ccccc2o1`, the displacement is 6.5%.

Consider `COc1ccc(C2=C/C(=C/c3ccc([N+](=O)[O-])o3)C(=O)O2)c(OC)c1`, for which the displacement is -28.4%.

Consider `CCOC(=O)c1c(C)[nH]c(N=Nc2cccc([N+](=O)[O-])c2)c1C`, for which the displacement was determined as 8.6%.

Consider `O=C1CCCC(O)=C1C=NCc1cccnc1`, for which the displacement stood at 23.3%.

On to `COc1ccc(C2C(C(C)=O)=C(O)C(=O)N2c2ccccn2)cc1` (configuration not stated), for which the displacement was -10.8%.

Regarding `Cc1cc(NCc2ccc3c(c2)OCO3)ccc1Br`, the displacement was 6.3%.

For the compound `COCCN1C(=O)C(=O)/C(=C(/O)c2ccccc2)C1c1ccccc1Cl` (configuration not stated), the displacement is -17.1%.

For the compound `O=C1c2ccccc2C(=O)c2c1c(Cl)c(Cl)c(Cl)c2N1CCOCC1`, the displacement was -5.7%.

With `O=C(/C=C/c1ccc(F)cc1)Nc1cccc(Cl)c1Cl`, the displacement was 17.9%.

On to `CC(=O)N/N=C/c1cc(C)n(-c2cccc(Cl)c2Cl)c1C`, for which the displacement is -0.7%.

For `Cc1onc(-c2ccccc2Cl)c1C(=O)Nc1ccc(S(=O)(=O)Nc2ncccn2)cc1`, the displacement worked out at 9.1%.

`CCOc1ccc(NC(=O)c2ccc(N3C(=O)c4cccnc4C3=O)cc2)cc1`: the displacement came to 14.1%.

With `O=C(/C=C/c1ccc(-c2ccc(Cl)cc2)o1)Nc1cccnc1`, the displacement is 14.7%.

For the compound `Cc1ccc(/C=C(\C#N)c2nc(-c3ccc4c(c3)OCO4)cs2)o1`, the displacement was -60.3%.

Regarding `O=c1[nH]n(-c2cccc(Cl)c2)c(O)c1/C=C1/C=Nc2ccccc21`, the displacement stood at 10%.

`CC(=O)c1ccc(NC(=O)CSc2nc(C)cc(C)n2)cc1`: the displacement was -6.6%.

As to `COc1cc(NC(=O)c2ccc(-c3ccccc3[N+](=O)[O-])o2)ccc1NC(=O)c1ccco1`, the displacement amounted to 7.1%.

Turning to `CC(=O)CC1(O)C(=O)N(Cc2ccc3c(c2)OCO3)c2ccccc21` (configuration not stated), the displacement is -1.2%.

Take `COc1ccc(C(=O)Oc2cccc3cccnc23)cc1Cl`: the displacement amounted to 16.6%.

As to `Cc1ccc(N2C(=O)CC(NCc3cccnc3)C2=O)cc1` (configuration not stated), the displacement was determined as 2.3%.

Regarding `Cc1ccc(C23CC4CC(CC(NC(=O)Nc5ccccn5)(C4)C2)C3)cc1`, the displacement is -7%.

On to `O=C1CNC(=O)/C1=C/c1ccc(Br)cc1`, for which the displacement came out at 17.7%.

As for `Cc1cccc(C)c1NC(=O)CSc1nc2ccc(NC(=O)CSc3nccn3C)cc2s1`, the displacement was -8.5%.

For the compound `CCOC(=O)c1ccccc1NC(=O)COc1ccc(C)c(C)c1`, the displacement was -8.6%.

For `COc1ccccc1Cc1noc(COc2ccc3ccccc3c2)n1`, the displacement was -2.2%.

For `O=C(CSc1nnc(-c2cccc(Cl)c2)n1-c1ccccc1)NCc1ccccc1`, the displacement is -17.5%.

In the case of `Cc1cc(C)n(CC(O)COCc2ccccc2)n1` (configuration not stated), the displacement is -3.8%.

Consider `COc1ccc(C(NC(=O)CN(c2cccc(Cl)c2)S(=O)(=O)c2ccccc2)c2ccccc2)cc1` (configuration not stated), for which the displacement is -4.3%.

Turning to `Cc1ccc(C(NC(N)=O)c2ccccc2)cc1C` (configuration not stated), the displacement stood at 5.7%.

`CC(Oc1ccccc1)C(=O)Nc1cc(C(N)=O)cc(C(N)=O)c1` (configuration not stated): the displacement worked out at 1.2%.

For `CCOc1ccccc1-n1c(O)c(C=C2C=CC=N2)c(=O)[nH]c1=O`, the displacement was 12.7%.

On to `COc1ccc(C=Nc2ccccc2Cl)c2ccccc12`, for which the displacement is -1.7%.

As to `COc1ccc(N(CC(=O)N2CCN(c3ccccc3OC)CC2)S(=O)(=O)c2ccccc2)c(OC)c1`, the displacement came out at 8.6%.

Consider `O=C(Nc1nc(-c2ccc(Cl)cc2)cs1)c1ccc2c(c1)OCO2`, for which the displacement was 13.6%.

`O=C(NCCCNc1ccc(C(F)(F)F)cc1[N+](=O)[O-])c1cc(F)c(F)cc1Cl`: the displacement is 12.3%.

Turning to `COc1cccc(C(=O)Nc2ccc(I)cc2Cl)c1`, the displacement worked out at 8.2%.

As to `Cc1ccc(OCC(=O)Nc2ccc(S(=O)(=O)Nc3onc(C)c3C)cc2)c(C)c1`, the displacement is 0.6%.

For the compound `COc1cc(C2CC(=O)NC(SCc3ccccc3)=C2C#N)cc(Br)c1O` (configuration not stated), the displacement was -3.6%.

Regarding `CC(C)NC(=O)NCC12CC3CC(C1)CC(CNC(=O)NC(C)C)(C3)C2`, the displacement was -15.5%.

With `CC(C)(C)c1cc(N2C(=O)C(=O)/C(=C(\O)c3ccccc3)C2c2cccc([N+](=O)[O-])c2)no1` (configuration not stated), the displacement is -10.8%.

Consider `Cc1ccc(/C=C/C(=O)Nc2cccc([N+](=O)[O-])c2)o1`, for which the displacement is 10.1%.

Take `Cc1ccc(C)c(N2C(=O)CC(Cc3ccc(Cl)cc3)C2=O)c1` (configuration not stated): the displacement is -16.4%.

On to `CC[n+]1c(/C=C/c2ccc([N+](=O)[O-])cc2)sc2ccccc21`, for which the displacement is -3.4%.

As to `COc1ccc(C(N=C2NS(=O)(=O)c3cc([N+](=O)[O-])ccc32)c2ccccc2)cc1` (configuration not stated), the displacement was -0.4%.

`COc1ccc(C2(C(=O)Nc3ncccc3C)CCCC2)cc1OC`: the displacement is -2.7%.

Turning to `O=C1N/C(=C\c2ccc(O)cc2)C(O)=C1C=NCc1ccccc1`, the displacement was -3.9%.

For the compound `Cc1cccc(OCC(=O)O/N=C(\N)c2ccc(Cl)cc2)c1`, the displacement stood at 1.8%.

For `Cc1ccc2[nH]c(C)c(CN3CCOCC3)c(=O)c2c1`, the displacement stood at 9.4%.

As for `CN(Cc1ccccc1)C1CC(=O)N(c2ccc(F)cc2)C1=O` (configuration not stated), the displacement is -6.6%.

As for `COc1ccccc1NC(=O)CSc1ncn[nH]1`, the displacement came out at 2.5%.

Take `COc1ccc(/C=C2\SC(=O)N(c3c(C)n(C)n(-c4ccccc4)c3=O)C2=O)cc1OC`: the displacement is -2.5%.

For `CCOC(=O)c1c(C)n(CCc2ccccc2)c2ccc(O)cc12`, the displacement is 7.6%.

As for `C=CCn1c(=O)[nH]c(=O)n(CC=C)c1=O`, the displacement amounted to 2.7%.

On to `O=C(N1CCN(C(=O)C23CC4CCC(CC(C4)C2)C3)CC1)C12CCC3CC(CC(C3)C1)C2`, for which the displacement was 11.4%.

Consider `CC1(C)Cc2ccccc2-c2nnnn21`, for which the displacement was 11.1%.

As for `O=C(COc1ccccc1Cl)NCc1ccco1`, the displacement was -5.5%.

Regarding `CCOC(=O)c1c(C)nn(C2CCCCC2)c1N`, the displacement was -3.3%.

With `CCOC(=O)C1=C(C)S/C(=C\N(C)C)C1=O`, the displacement is 7.4%.

Regarding `CCOc1ccc2c(=O)c(-c3nc4ccccc4s3)coc2c1`, the displacement was 7.8%.

Take `Cc1ccc2c(c1)c1c3n2CCN(C(C)c2ccccc2)C3CCC1` (configuration not stated): the displacement was -28.7%.

`CC1CN(c2ccc([N+](=O)[O-])cc2Cl)CCN1S(C)(=O)=O` (configuration not stated): the displacement was -7.5%.

For the compound `O=c1oc2ccc(O)c(-c3ccccc3Cl)c2s1`, the displacement was determined as 15.5%.

Regarding `Cc1sc2ncn(/N=C/C=C3\N(C)c4ccccc4C3(C)C)c(=O)c2c1C`, the displacement is 75.7%.

Turning to `CSc1nnc2n(-c3ccccc3)c(=O)c3c4c(sc3n12)CC(C(C)(C)C)CC4` (configuration not stated), the displacement stood at 1.2%.

Turning to `CCN(CC)c1ccc(NC(=O)c2ccc3c(c2)OCCO3)cc1`, the displacement came to 14.9%.

For `Cc1cc(OCC(=O)Nc2cccc(Cl)c2Cl)ccc1Br`, the displacement came out at 2.9%.

Turning to `Cc1cc([N+](=O)[O-])ccc1-c1ccc(/C=C2\SC(=O)N(c3cccc(Cl)c3)C2=O)o1`, the displacement amounted to 0.7%.

`O=C(NCc1ccc(Cl)cc1)c1ccc(C#Cc2ccccc2)cc1`: the displacement was -4.5%.

For the compound `CCOc1ccc(NC(=O)CN(c2cccc(C(F)(F)F)c2)S(C)(=O)=O)cc1`, the displacement is 2.8%.

With `O=C1C=C(NCc2ccncc2)CC(c2ccccc2)C1` (configuration not stated), the displacement was determined as 7.1%.

Regarding `O=C1c2ccccc2NC(c2ccco2)N1O` (configuration not stated), the displacement was determined as 0%.

Turning to `CCCN(CCC)CC(O)COC1CCC(C(C)(C)C)CC1` (configuration not stated), the displacement is -8.7%.

As to `O=C(N/N=C/c1cc([N+](=O)[O-])cc(Br)c1O)c1ccncc1`, the displacement was 10.6%.

Take `Cc1cccc(NC(=O)c2cc3ccccc3oc2=O)n1`: the displacement worked out at 9.9%.

`CCCOc1ccc(-c2cc(C(=O)N3CCCCCC3)c3ccccc3n2)cc1`: the displacement was -3.4%.

With `CC(=O)NNC(=O)c1cccc(Cl)c1`, the displacement is -9.1%.

For the compound `Cc1ccc(Cl)cc1N1C(=O)C2C3C=CC(CO)(O3)C2C1=O` (configuration not stated), the displacement was -3.7%.

Consider `O=C(/C=C/c1ccc(Cl)cc1Cl)Nc1nn[nH]n1`, for which the displacement was -5%.

In the case of `Cc1ccccc1C(=O)Nc1ccccc1C(=O)N1CCCCC1`, the displacement amounted to 15.9%.
